The source of these data is article PMC4049591.

Results are given in words; binding and its absence hold for the method and conditions named. Binding seen in cells or lysates may run through a third protein. Some binding calls cover weakened binding; strength is not graded here. Where a sequence is shown, tags or fusion partners need not be part of it.

What all share (assay): co-IP; 293T cells transfected with Myc-tagged EDEMs (10% of the DNA normally used); lysed in buffer with 1% Triton; immunoprecipitated with Myc antibodies; blotted for endogenous SEL1L, HRD1, Bip, calnexin and ERp57
The target of assay [1] is T1, Myc-tagged EDEM2 active site mutant D258N (human) (UniProt Q9BV94).
T1 sequence: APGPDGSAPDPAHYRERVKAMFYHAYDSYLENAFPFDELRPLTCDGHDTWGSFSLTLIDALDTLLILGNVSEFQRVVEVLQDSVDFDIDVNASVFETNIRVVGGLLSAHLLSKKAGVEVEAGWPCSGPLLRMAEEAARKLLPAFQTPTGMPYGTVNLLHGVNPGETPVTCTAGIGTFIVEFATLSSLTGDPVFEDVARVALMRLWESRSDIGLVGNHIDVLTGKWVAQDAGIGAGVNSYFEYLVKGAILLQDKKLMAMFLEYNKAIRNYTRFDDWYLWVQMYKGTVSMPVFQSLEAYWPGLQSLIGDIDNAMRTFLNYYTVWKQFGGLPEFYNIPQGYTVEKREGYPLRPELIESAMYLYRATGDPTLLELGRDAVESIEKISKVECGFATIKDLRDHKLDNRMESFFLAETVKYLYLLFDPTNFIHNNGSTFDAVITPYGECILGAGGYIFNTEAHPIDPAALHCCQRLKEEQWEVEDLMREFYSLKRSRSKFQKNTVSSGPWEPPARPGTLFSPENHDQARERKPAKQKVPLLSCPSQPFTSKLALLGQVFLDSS

The target of assay [2] is T2, Myc-tagged wild type EDEM3 (human) (UniProt Q9BZQ6).
T2 sequence: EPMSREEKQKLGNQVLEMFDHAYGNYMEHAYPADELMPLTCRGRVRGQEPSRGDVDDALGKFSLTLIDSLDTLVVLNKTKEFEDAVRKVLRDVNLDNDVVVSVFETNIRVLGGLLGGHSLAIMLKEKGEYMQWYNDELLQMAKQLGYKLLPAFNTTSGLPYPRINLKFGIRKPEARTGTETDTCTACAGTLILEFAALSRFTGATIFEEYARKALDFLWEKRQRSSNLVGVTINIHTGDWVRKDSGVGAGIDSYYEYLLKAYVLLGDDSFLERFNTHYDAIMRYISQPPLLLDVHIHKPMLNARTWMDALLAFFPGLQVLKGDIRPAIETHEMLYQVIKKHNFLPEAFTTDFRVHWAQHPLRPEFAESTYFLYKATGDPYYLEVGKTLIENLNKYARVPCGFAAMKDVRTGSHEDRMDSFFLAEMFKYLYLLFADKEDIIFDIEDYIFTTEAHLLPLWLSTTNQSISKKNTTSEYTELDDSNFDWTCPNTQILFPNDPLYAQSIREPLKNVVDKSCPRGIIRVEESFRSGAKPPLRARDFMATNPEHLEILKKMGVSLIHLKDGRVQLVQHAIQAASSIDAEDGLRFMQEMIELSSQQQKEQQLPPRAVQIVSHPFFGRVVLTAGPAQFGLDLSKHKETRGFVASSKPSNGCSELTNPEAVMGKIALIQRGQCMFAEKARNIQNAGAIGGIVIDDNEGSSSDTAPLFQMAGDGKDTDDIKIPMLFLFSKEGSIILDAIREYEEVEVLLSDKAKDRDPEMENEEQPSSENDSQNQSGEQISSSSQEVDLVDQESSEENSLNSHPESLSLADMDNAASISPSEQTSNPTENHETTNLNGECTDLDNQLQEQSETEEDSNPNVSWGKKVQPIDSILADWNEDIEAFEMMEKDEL

In assay [3] the target is T3, Myc-tagged EDEM1 active site mutant E493Q (human) (UniProt Q92611).
T3 sequence: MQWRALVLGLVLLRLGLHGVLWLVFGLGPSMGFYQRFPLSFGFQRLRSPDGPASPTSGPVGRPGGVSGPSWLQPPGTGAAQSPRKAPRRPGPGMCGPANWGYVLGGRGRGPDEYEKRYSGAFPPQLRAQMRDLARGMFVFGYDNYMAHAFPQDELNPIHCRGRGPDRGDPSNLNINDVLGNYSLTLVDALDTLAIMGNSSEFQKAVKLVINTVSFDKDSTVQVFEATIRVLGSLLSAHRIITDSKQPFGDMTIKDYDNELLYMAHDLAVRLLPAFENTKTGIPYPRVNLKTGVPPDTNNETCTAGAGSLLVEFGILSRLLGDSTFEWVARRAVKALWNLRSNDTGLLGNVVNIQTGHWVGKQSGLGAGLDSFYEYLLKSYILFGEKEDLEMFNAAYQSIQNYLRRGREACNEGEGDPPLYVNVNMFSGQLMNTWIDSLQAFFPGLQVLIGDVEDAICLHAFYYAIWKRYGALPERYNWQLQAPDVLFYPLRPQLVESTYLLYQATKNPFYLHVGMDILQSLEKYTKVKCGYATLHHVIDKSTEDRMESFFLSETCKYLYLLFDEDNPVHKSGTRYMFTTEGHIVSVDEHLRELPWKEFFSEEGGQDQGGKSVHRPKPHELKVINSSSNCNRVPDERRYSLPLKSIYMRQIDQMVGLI

B1: Calnexin (protein, UniProt P27824 21-592)
chain: HDGHDDDVIDIEDDLDDVIEEVEDSKPDTTAPPSSPKVTYKAPVPTGEVYFADSFDRGTLSGWILSKAKKDDTDDEIAKYDGKWEVEEMKESKLPGDKGLVLMSRAKHHAISAKLNKPFLFDTKPLIVQYEVNFQNGIECGGAYVKLLSKTPELNLDQFHDKTPYTIMFGPDKCGEDYKLHFIFRHKNPKTGIYEEKHAKRPDADLKTYFTDKKTHLYTLILNPDNSFEILVDQSVVNSGNLLNDMTPPVNPSREIEDPEDRKPEDWDERPKIPDPEAVKPDDWDEDAPAKIPDEEATKPEGWLDDEPEYVPDPDAEKPEDWDEDMDGEWEAPQIANPRCESAPGCGVWQRPVIDNPNYKGKWKPPMIDNPSYQGIWKPRKIPNPDFFEDLEPFRMTPFSAIGLELWSMTSDIFFDNFIICADRRIVDDWANDGWGLKKAADGAAEPGVVGQMIEAAEERPWLWVVYILTVALPVFLVILFCCSGKKQTSGMEYKKTDAPQPDVKEEEEEKEEEKDKGDEEEEGEEKLEEKQKSDAEEDGGTVSQEEEDRKPKAEEDEILNRSPRNRKPRRE
As to B1, the values for the binding entry in assay [1], in assay [2] and in assay [3] were “binds”, “binds weakly” and “binds”, respectively.
